Test results published in the supplement of paper PMC11417369.
± gives the standard deviation of the averaged measurements. This is one part of the list.

Tested on: PfAP2-EXP AP2 domain (GST-tagged)
Assay: gcPBM binding intensity (ln(normalized median fluorescence intensity)); higher = stronger DNA binding
Outline: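 In this array assay, P. falciparum DNA-binding domains with a GST tag, expressed in E. coli, were applied for 1 h to primer-extended double-stranded 36-bp intergenic genomic probes and negative controls on an Agilent 4 × 180k array. Bound protein was visualised with Alexa488 anti-GST antibody at 488 nm. Binding intensity is the highest Masliner-normalised natural-log median intensity across replicate spots of either probe orientation.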

Question: With “ATGTTCTATAAATATGAACACACGACATATTATTTA [CACACA_site1799]” as the sequence, how does the “gcPBM binding intensity (ln)” value read?
Answer: 8.32 ± 0.42

Question: For “ATATATATATATATATGTACATATTATTCTCATTGT [XGTACX_site6259]”, which “gcPBM binding intensity (ln)” value is on record?
Answer: 9.88 ± 0.28

Question: How did the “gcPBM binding intensity (ln)” value turn out when “TGTAGTATCAATTTTTGTACATAACACATATGTATA [XGTACX_site613]” was run?
Answer: 8.43 ± 0.26

Question: With “TATATTTAATTACATGAACACACATTATATATTTTT [CACACA_site8969]” as the sequence, how does the “gcPBM binding intensity (ln)” value read?
Answer: 8.46 ± 0.2

Question: For “TTTATTTTTCCATATGCACACACACCGTATATATAA [CACACA_site8293]”, which “gcPBM binding intensity (ln)” value is on record?
Answer: 9.15 ± 0.28

Question: For “AAAACAAACACATTTACACACATAAATAAATCAATT [CACACA_site4122]”, which “gcPBM binding intensity (ln)” value is on record?
Answer: 8.53 ± 0.45

Question: How did the “gcPBM binding intensity (ln)” value turn out when “TATTCATTCTATAAAACACACAAATATTTTTGTATC [CACACA_site666]” was run?
Answer: 8.63 ± 0.4

Question: Which “gcPBM binding intensity (ln)” value does the source give for “ATACATACATACATACGTACATATGTATATATATAT [XGTACX_site8498]” here?
Answer: 9.7 ± 0.19

Question: “AAAATATAAATATATTTGAACATGGATCAAATGTAA [GTGCAC_negctrl_site626]” was tested. Which “gcPBM binding intensity (ln)” value did it give?
Answer: 8.37 ± 0.35

Question: “AAATTAAAATATAATACACACATAAAAAAAAAATCA [CACACA_site5918]” was tested. Which “gcPBM binding intensity (ln)” value did it give?
Answer: 8.54 ± 0.43

Question: How did the “gcPBM binding intensity (ln)” value turn out when “GTATATGAATGTTCATGTACATAATAAAATATATAA [XGTACX_site250]” was run?
Answer: 8.77 ± 0.5

Question: “ATATATATATATAAAGTGCAAAAATGAAAGTAAGAC [GTGCAC_site9850]” was tested. Which “gcPBM binding intensity (ln)” value did it give?
Answer: 9.99 ± 0.14

Question: Which “gcPBM binding intensity (ln)” value does the source give for “ATAAAATATAAAAACGCACACAATTATAAGGGTGTA [CACACA_site177]” here?
Answer: 8.78 ± 0.3

Question: For “AAGAAAAGAAACAAAAAAAAAAAGAAATAAAAGGAA [TGCATGCA_negctrl_site171]”, which “gcPBM binding intensity (ln)” value is on record?
Answer: 8.7 ± 0.71

Question: For “TATATATATATATGTAGTACCTATAATATTAAATAC [XGTACX_site6118]”, which “gcPBM binding intensity (ln)” value is on record?
Answer: 9.95 ± 0.33

Question: How did the “gcPBM binding intensity (ln)” value turn out when “TTATTATCATCAAATCAAAAAATTCTTTTACCTGTT [CACACA_negctrl_site1348]” was run?
Answer: 8.21 ± 0.45

Question: How did the “gcPBM binding intensity (ln)” value turn out when “AATTTTTTTTTTTTTTTTTTTTATATATGTGTGTGT [XGTACX_negctrl_site129]” was run?
Answer: 7.99 ± 0.67

Question: With “TATGAATGGTTAAGTACACACATATTAATATAGGTA [CACACA_site7606]” as the sequence, how does the “gcPBM binding intensity (ln)” value read?
Answer: 8.67 ± 0.33

Question: For ATCAATAAATAAAATGTGCACATAATATATTAATAC, which “gcPBM binding intensity (ln)” value is on record?
Answer: 8.93 ± 0.38

Question: Which “gcPBM binding intensity (ln)” value does the source give for “TTGAAGAAAAAAAAATGTACATAAAAAATATATATG [XGTACX_site428]” here?
Answer: 8.91 ± 0.37

Question: How did the “gcPBM binding intensity (ln)” value turn out when “CTTATAAATAAAAGAAGTACATGTTAGTTCAAGTTA [XGTACX_site4183]” was run?
Answer: 8.66 ± 0.38

Question: For “ATTATATTTATTAATATGTATATTTAATTATATTTA [XGTACX_negctrl_site376]”, which “gcPBM binding intensity (ln)” value is on record?
Answer: 7.98 ± 0.28

Question: “TTTCATCTCGTCATTTCTTATATAACTATTTTATAC [CACACA_negctrl_site813]” was tested. Which “gcPBM binding intensity (ln)” value did it give?
Answer: 8.85 ± 0.44

Question: For “ATTATTGTTTATTGATTTTTGTTAAAATAGGAAATT [GTGCAC_negctrl_site181]”, which “gcPBM binding intensity (ln)” value is on record?
Answer: 8.37 ± 0.4

Question: Which “gcPBM binding intensity (ln)” value does the source give for “CAAATTTTTTATTAAACACACAAACATATATATATA [CACACA_site5122]” here?
Answer: 9.95 ± 0.2

Question: Which “gcPBM binding intensity (ln)” value does the source give for “AAGTGTAAAAGTTACACACACAAACTTGTCATTTTT [CACACA_site4614]” here?
Answer: 8.74 ± 0.51

Question: For “TTCTTTATTATATGCACACGTACATAAAATATATAT [CACACA_site5157]”, which “gcPBM binding intensity (ln)” value is on record?
Answer: 8.72 ± 0.19

Question: With “ATTTTTTTTTTTTTTTGTACGAATAATATGTATGAA [XGTACX_site5318]” as the sequence, how does the “gcPBM binding intensity (ln)” value read?
Answer: 8.29 ± 0.32

Question: How did the “gcPBM binding intensity (ln)” value turn out when “TATAAAAAATATATATATAATATTATATATATATAT [TGCATGCA_negctrl_site260]” was run?
Answer: 9.77 ± 0.32

Question: With “AAAGGAGGGAATTTTTCTAGGTGTGGAGTGCTACTC [XGTACX_negctrl_site63]” as the sequence, how does the “gcPBM binding intensity (ln)” value read?
Answer: 8.38 ± 0.42

Question: How did the “gcPBM binding intensity (ln)” value turn out when “TCGTCTCAATAATTATAATAAAAAAATTCCTAAGTC [CACACA_negctrl_site338]” was run?
Answer: 8.27 ± 0.36

Question: “ATTTTCCTATTTAGTAGTACTTTTTTCTTTTTTTAA [XGTACX_site5260]” was tested. Which “gcPBM binding intensity (ln)” value did it give?
Answer: 8.81 ± 0.45

Question: How did the “gcPBM binding intensity (ln)” value turn out when TTATATTTCACAAATGTGCACAGATACATATATATA was run?
Answer: 9.13 ± 0.14

Question: With “TTTTTGTTTCATAAATGTACAAAAACAAACATATTT [XGTACX_site5281]” as the sequence, how does the “gcPBM binding intensity (ln)” value read?
Answer: 8.29 ± 0.41

Question: For “TTATATGTATATATAGTGCAGAACAAAAGATTATAT [GTGCAC_site9599]”, which “gcPBM binding intensity (ln)” value is on record?
Answer: 8.91 ± 0.4

Question: With “AATTTAATCCGTAATAAGAAAAGAAAAAAAAAAAGA [GTGCAC_negctrl_site129]” as the sequence, how does the “gcPBM binding intensity (ln)” value read?
Answer: 8.48 ± 0.47

Question: With “ATTAGCTACAAACAAAGGCTACCTATAGCAAGAGGG [GTGCAC_negctrl_site33]” as the sequence, how does the “gcPBM binding intensity (ln)” value read?
Answer: 8.84 ± 0.39

Question: Which “gcPBM binding intensity (ln)” value does the source give for “TATATATATACATACATACACACATATATATATATA [CACACA_site4109]” here?
Answer: 10.1 ± 0.67

Question: How did the “gcPBM binding intensity (ln)” value turn out when “ATAATTTCTTTTACATGTACAAAATTTGCTTATATG [XGTACX_site5388]” was run?
Answer: 9.1 ± 0.47

Question: How did the “gcPBM binding intensity (ln)” value turn out when “ATATATATAATGTGAAGTACATTTTGTTTACATATT [XGTACX_site8405]” was run?
Answer: 8.91 ± 0.42

Question: How did the “gcPBM binding intensity (ln)” value turn out when “TAATTTATGGAATATGTGCACTTGCTGATCACTTTT [GTGCAC_site9843]” was run?
Answer: 8.89 ± 0.29

Question: How did the “gcPBM binding intensity (ln)” value turn out when “GGATTATTTATAGGAGTGCATACATATATATATATA [GTGCAC_site9454]” was run?
Answer: 10.1 ± 0.41

Question: “TTTACACTTTCCAATAGTACATATTAGAATAATTCT [XGTACX_site7734]” was tested. Which “gcPBM binding intensity (ln)” value did it give?
Answer: 8.51 ± 0.3

Question: Which “gcPBM binding intensity (ln)” value does the source give for “TTTATTAAATAATCTCTTTTTATTACATAATAATAA [XGTACX_negctrl_site382]” here?
Answer: 7.93 ± 0.43

Question: Which “gcPBM binding intensity (ln)” value does the source give for “AATATCTAAATAAAGTGTACTTACCTTATTAATTAT [XGTACX_site2276]” here?
Answer: 8.2 ± 0.4

Question: How did the “gcPBM binding intensity (ln)” value turn out when “CCAATACATAGAAACTGTACATTATGCATTATACAC [XGTACX_site3531]” was run?
Answer: 8.79 ± 0.28

Question: For “AATAAACATAAATACACACACAAAAAAAAAAACATA [CACACA_site4396]”, which “gcPBM binding intensity (ln)” value is on record?
Answer: 8.61 ± 0.56

Question: “TTTTTTTTTTTTTGATGTACTAAAAAAAATGAGCCT [XGTACX_site8535]” was tested. Which “gcPBM binding intensity (ln)” value did it give?
Answer: 8.16 ± 0.22

Question: How did the “gcPBM binding intensity (ln)” value turn out when “AAATATTACTACACTACATGCAGTTTTAGGTACACT [TGCATGCA_site42]” was run?
Answer: 8.97 ± 0.29

Question: With “AAAAACAAAATATAATGTACACAATATATGTATATA [XGTACX_site2301]” as the sequence, how does the “gcPBM binding intensity (ln)” value read?
Answer: 8.52 ± 0.19

Question: “TGTAGTCTGGAGAAGAGTACATAGTATCTGGTAACA [XGTACX_site4944]” was tested. Which “gcPBM binding intensity (ln)” value did it give?
Answer: 8.7 ± 0.26

Question: Which “gcPBM binding intensity (ln)” value does the source give for “TATAGGTAAATGGACACACACATATTTATATTTATA [CACACA_site7683]” here?
Answer: 8.64 ± 0.44

Question: For “ATAGAAGCATCACACTGTACATGGATGAACAGAAAA [XGTACX_site7311]”, which “gcPBM binding intensity (ln)” value is on record?
Answer: 8.72 ± 0.44

Question: For “TATAATATAAGGATCACACACAAACAGACATATATA [CACACA_site557]”, which “gcPBM binding intensity (ln)” value is on record?
Answer: 9.03 ± 0.49

Question: Which “gcPBM binding intensity (ln)” value does the source give for “TTATTAGGTGTATAATGTACATATAATATATATATA [XGTACX_site3398]” here?
Answer: 9.405 ± 0.035

Question: With “TAATGTTTTTATATCACACACAAATATTAAATGATT [CACACA_site543]” as the sequence, how does the “gcPBM binding intensity (ln)” value read?
Answer: 8.33 ± 0.42
